Measured values published in the supplement of paper PMC7266297.
Counter-ions that a name gives are not always drawn. This is one part of the list. Repeats are few or missing, and single values can be far off.

Assays:
KB-3-1 = test: growth inhibition relative to DMSO control (SRB); cervical cancer cells: KB-3-1 is the parent and KB-V1 overexpresses MDR1; SRB is the sulforhodamine B stain; higher = more growth inhibition; conditions: 1 µM; 72 h
KB-V1 = test: as above; conditions: 1 µM; 72 h
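Note: Read-out is SRB optical density at 490 nm, with the control being wells given 0.5% DMSO vehicle, and compound added one day after cells were plated.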

SMILES | growth inhibition (KB-3-1) [%] | growth inhibition (KB-V1) [%]
Cn1cc(-c2ccc3nnc(C(F)(F)c4ccc5ncccc5c4)n3n2)cn1 | 29.7 | 38.1
C=CC(=O)Nc1cccc(Oc2nc(Nc3ccc(N4CCN(C)CC4)cc3)ncc2Cl)c1 | 96.2 | 86
COc1c(C)cnc(Cn2cnc3c(Cl)nc(N)nc32)c1C | 88.9 | 74
CCc1c2c(nc3ccc(OC(=O)N4CCC(N5CCCCC5)CC4)cc13)-c1cc3c(c(=O)n1C2)COC(=O)[C@]3(O)CC [Irinotecan] | 55.2 | 44
c1ccc(-c2[nH]ncc2-c2ccnc3ccccc23)nc1 | 5.56 | 20.1
CCO[C@@H]1OC(=O)C[C@@H]1NC(=O)[C@@H]1CCCN1C(=O)[C@@H](NC(=O)c1ccc(N)c(Cl)c1)C(C)(C)C | < 0 | < 0
COc1ccc2[nH]c([S@@+]([O-])Cc3ncc(C)c(OC)c3C)nc2c1 [Esomeprazole Sodium] | < 0 | 25.2
CN1[C@@H]2CC[C@H]1C[C@@H](OC(=O)c1c[nH]c3ccccc13)C2 [Tropisetron] | 48.3 | 22.8
N#Cc1c(Oc2ccc(F)c(NC(=O)Cc3cccc(C(F)(F)F)c3)c2)ccc2nc(NC(=O)C3CC3)sc12 | < 0 | < 0
Nc1ncnc2c1c(-c1cnc3[nH]ccc3c1)nn2C1CCCC1 | 83.5 | 67.6
NC1(c2ccc(-c3nc4ccn5c(=O)[nH]nc5c4cc3-c3ccccc3)cc2)CCC1 | 55.5 | 43.5
Nc1nc(CC(=O)Nc2ccc(CCNC[C@H](O)c3ccccc3)cc2)cs1 [Mirabegron] | < 0 | 4.25
COc1cc2c(Nc3ccc(NC(=O)c4ccccc4)cc3)ncnc2cc1OCCCN1CCOCC1 | 72.3 | 40.5
O=C(Nc1ccncc1)c1cc([N+](=O)[O-])ccc1Cl | 18.3 | 33.7
Cc1[nH]c(/C=C2\C(=O)Nc3ccc(S(=O)(=O)N(C)c4cccc(Cl)c4)cc32)c(C)c1C(=O)N1CCN(C)CC1 | 26.3 | 28
Cn1c(N2CCCCS2(=O)=O)nc(C(=O)NCc2ccc(F)cc2)c(O)c1=O | 96 | 83.8
COc1cc2c(cc1O)CC[C@@H]1[C@@H]2CC[C@]2(C)[C@@H](O)CC[C@@H]12 [2-Methoxyestradiol (2-MeOE2)] | 38.8 | 49.3

SMILES | growth inhibition (KB-3-1) [%] | growth inhibition (KB-V1) [%]
C[C@H]1COC2=C1C(=O)C(=O)c1c2ccc2c1CCCC2(C)C [Cryptotanshinone] | 15.1 | 17.8
Nc1ccccc1NC(=O)c1ccc(CNC(=O)OCc2cccnc2)cc1 [Entinostat (MS-275)] | 40.1 | 36.5
O=C(O[C@H]1CN2CCC1CC2)N1CCc2ccccc2[C@@H]1c1ccccc1 [Solifenacin succinate] | < 0 | 9.68
CN1CCC(=C2c3ccccc3C=Cc3ccccc32)CC1 [Cyproheptadine HCl] | 24.5 | 26.7
CC(C)NCC(O)COc1ccc(CCOCC2CC2)cc1 (stereo unspecified) [Betaxolol] | 27.9 | 23
CN1CCC(CNc2ccc3ncc(-c4cccc(OC(F)(F)F)c4)n3n2)CC1 [SGI-1776 free base] | < 0 | 58.9
CS(=O)(=O)c1ccc(C2=C(c3ccccc3)C(=O)OC2)cc1 [Rofecoxib] | < 0 | 1.22
Cc1nc2n(c(=O)c1CCN1CCC(c3noc4cc(F)ccc34)CC1)CCCC2 [Risperidone] | 37.1 | 17.8
Cc1cn(-c2cc(NC(=O)c3ccc(C)c(Nc4nccc(-c5cccnc5)n4)c3)cc(C(F)(F)F)c2)cn1 [Nilotinib (AMN-107)] | 68.1 | 47
Cc1c(C(=O)Nc2ccc(N3C[C@@H](C)O[C@@H](C)C3)nc2)cccc1-c1ccc(OC(F)(F)F)cc1 [LDE225 (NVP-LDE225,Erismodegib)] | < 0 | 17.8
CC(=O)Nc1nc(C)c(-c2ccc(Cl)c(S(=O)(=O)NCCO)c2)s1 | 41.7 | 19.2
Cc1ccc2nc(NCCN)c3ncc(C)n3c2c1 | 58.1 | 16.7
Cc1cnc(-c2cnc(NCCNc3ccc(C#N)cn3)nc2-c2ccc(Cl)cc2Cl)[nH]1 | < 0 | 3.17
COc1cc2c(Oc3ccc4[nH]c(C)cc4c3F)ncnc2cc1OCCCN1CCCC1 [Cediranib (AZD2171)] | 35.9 | 42.5
O=C(O)c1cc2cccc([N+](=O)[O-])c2[nH]1 | 53.5 | 9.26
CNCC[C@H](Oc1cccc2ccccc12)c1cccs1 [Duloxetine HCl] | 22.1 | 22.1
